PMC4336329 (PLoS ONE, 2015)
The campaign covered roughly 310,000 compounds. About 2,200 (0.71%) showed an effect of 50% or more. Effects have a minus sign here. The list shows a part of the results.

molecular target: human ether-à-go-go-related gene (hERG) potassium channel (human, UniProt Q12809); test: primary screen, population patch clamp on CHO cells stably expressing hERG
Sequence (Q12809 whole entry, looked up): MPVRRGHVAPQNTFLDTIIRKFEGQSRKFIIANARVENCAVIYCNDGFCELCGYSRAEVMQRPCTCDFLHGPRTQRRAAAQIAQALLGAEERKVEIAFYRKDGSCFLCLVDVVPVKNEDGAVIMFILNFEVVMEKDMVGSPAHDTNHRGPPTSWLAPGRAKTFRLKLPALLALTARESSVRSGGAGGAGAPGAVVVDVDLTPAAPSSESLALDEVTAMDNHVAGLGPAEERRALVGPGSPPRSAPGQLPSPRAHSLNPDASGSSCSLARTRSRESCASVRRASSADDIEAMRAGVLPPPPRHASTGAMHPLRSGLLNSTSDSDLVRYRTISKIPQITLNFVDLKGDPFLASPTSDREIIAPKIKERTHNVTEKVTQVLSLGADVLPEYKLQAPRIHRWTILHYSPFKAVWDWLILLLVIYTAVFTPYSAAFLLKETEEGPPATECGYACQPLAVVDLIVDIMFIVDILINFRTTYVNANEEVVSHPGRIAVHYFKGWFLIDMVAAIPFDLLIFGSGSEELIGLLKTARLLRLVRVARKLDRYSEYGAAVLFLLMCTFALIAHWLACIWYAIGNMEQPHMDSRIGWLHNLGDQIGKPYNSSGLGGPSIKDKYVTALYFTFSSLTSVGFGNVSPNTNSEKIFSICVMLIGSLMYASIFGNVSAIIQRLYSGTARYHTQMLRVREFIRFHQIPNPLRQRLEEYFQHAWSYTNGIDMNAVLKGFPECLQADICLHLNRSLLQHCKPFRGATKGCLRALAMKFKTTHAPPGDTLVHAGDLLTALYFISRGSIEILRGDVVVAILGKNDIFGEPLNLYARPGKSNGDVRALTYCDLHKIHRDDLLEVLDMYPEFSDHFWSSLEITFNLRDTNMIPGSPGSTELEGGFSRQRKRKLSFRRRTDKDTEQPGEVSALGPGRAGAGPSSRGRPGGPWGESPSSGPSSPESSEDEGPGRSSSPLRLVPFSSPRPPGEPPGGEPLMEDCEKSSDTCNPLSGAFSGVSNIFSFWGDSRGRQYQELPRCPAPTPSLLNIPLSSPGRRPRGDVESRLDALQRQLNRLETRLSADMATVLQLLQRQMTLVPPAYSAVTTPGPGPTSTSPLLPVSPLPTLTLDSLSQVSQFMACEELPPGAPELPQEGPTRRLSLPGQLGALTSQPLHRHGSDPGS

SMILES | hERG current change (%, negative = inhibition) at 1uM [%]
COc1ccccc1-c1noc(CCC(=O)Nc2cc(C(F)(F)F)ccc2Cl)n1 | 5.53
O=C(CCN1C(=O)/C(=C\C=C\c2ccccc2)SC1=S)Nc1ccc(C(=O)O)cc1 | 11
CC(C)CNC(=O)/C=C/c1cccs1 | -2.5
CCOC(=O)C1CSC(CC(=O)Nc2ccc(Cl)cc2)C(=O)N1 (centres unmarked) | 4.16
N#CC1=C(N)Oc2cc(N)ccc2C1c1ccsc1 (centres unmarked) | 8.36
Cn1c(=O)c(=O)n(C)c2cc(S(=O)(=O)NCCOc3ccccc3)ccc21 | 11.1
NC(=O)CSc1nc2sc3c(c2c2ncnn12)CCCC3 | -12.8
CCS(=O)(=O)N1Cc2ccccc2CC1C(=O)Nc1nc2ccc(F)cc2s1 (centres unmarked) | 14.5
COCCNC(=O)CN(CCc1ccccc1)S(=O)(=O)c1ccc(OC)cc1 | 2.75
O=C(Nc1cc2ccccc2oc1=O)c1ccccc1 | 16
CC1CCc2cccc3c(O)cc(=O)n1c23 (centres unmarked) | 13.1
COC(=O)c1[nH]c2ccc(C)cc2c1NS(=O)(=O)c1ccc(F)cc1 | 5.82
CCN1CCN(c2ccc(S(=O)(=O)N3CCCCC3)cc2NC(=O)COc2ccc(Cl)c(C)c2)CC1 | -3.72
CCc1nnc(SCc2cccc(F)c2)nc1CC | 6.68
CC(C)c1nc(CNC(=O)c2cc(COc3c(F)cccc3F)on2)cs1 | 0.197
O=C(CSc1nnnn1C1CCCC1)Nc1ccc2c(c1)OCO2 | 14.3
c1ccc(CCN2CN(CCCN3CCOCC3)c3nc4ccccc4n3C2)cc1 | -14.4
O=C(Nc1ccc(-n2nncc2-c2ccco2)cc1)c1cccc(F)c1 | 1.86
COc1ccc(-c2nc(CCNS(=O)(=O)c3ccc4c(c3)OCCO4)cs2)cc1 | -15.7

SMILES | hERG current change (%, negative = inhibition) at 1uM [%]
Cl.Cn1nnnc1SCCNCc1cc(Cl)ccc1OCc1ccccc1 | -11.5
O=C(CN1CCC(n2nnc3cc(F)ccc32)CC1)N1CCCc2ccccc21 | -37.2
CCCCCn1c(CN2CCN(C)CC2)nc2c1c(=O)n(C)c(=O)n2C | -5.24
CCCN(CCC)CC(O)COc1ccc2c(c1)OCO2.Cl (centres unmarked) | -14.7
O=C(Nc1cccc2nsnc12)c1ccc(-c2cccc(Cl)c2)o1 | 10.3
CC(C)c1nc2ccccc2c2nnc(SCC(=O)NCc3ccco3)n12 | 3.02
O=C(Nc1ccon1)Nc1ccc(F)cc1F | 11.3
COc1ccc(/C=N/N2CCN(c3ccccc3)CC2)cc1Br | 11.2
NC(=O)Nc1ccc(Oc2ncc(C(F)(F)F)cc2Cl)cc1 | 16.2
O=C(Nc1cc(Cl)cc(Cl)c1)C(c1ccccc1)N1CCCCC1 (centres unmarked) | 1.7
COC(=O)c1sc(S(=O)(=O)Nc2ccc(C)cc2)c(C(=O)OC)c1C | 14.4
O=C(Nc1nnc(-c2ccco2)o1)c1ccc(N2C(=O)CCC2=O)cc1 | 14.3
O=C(Nc1cc(Cl)cc(Cl)c1)C1C2C=CC3(O2)C1C(=O)N(CCCN1CCOCC1)C3C(=O)NC1CCCCC1 (centres unmarked) | 10.6
CCN1CCN(c2ccc(S(=O)(=O)N3CCCCC3)cc2NC(=O)/C=C/c2ccc(OC(F)F)cc2)CC1 | -1.19
COc1c(C)cccc1C(=O)NCCCNC(=O)c1ccc(C)nc1 | 7.26
COc1ccc(S(=O)(=O)Cc2ccc(C(=O)NCc3cccnc3)o2)cc1 | 2.58
O=C(O)/C=C/c1cn(Cc2ccccc2)nc1-c1cccs1 | 15.7
CN(C)CC/C=C1\c2ccccc2CSc2ccccc21.Cl | -6.36
Nc1nc(-c2cccc(F)c2)cs1 | 14.4

SMILES | hERG current change (%, negative = inhibition) at 1uM [%]
CCOCC(=O)N1CCCC(C(=O)OCC)C1 (centres unmarked) | 4.7
CCc1ccc(NC(=O)CCNC(=O)Cn2cnc3ccccc3c2=O)cc1 | 13.8
Cc1ccc(-c2csc(N/N=C/C=C/c3ccccc3)n2)cc1 | 4.66
COc1ccc(NC(=O)c2onc(C)c2Cl)cc1OC | -0.133
COc1ccc(-c2c3c(=O)n(C)c(=O)n(C)c3cn2Cc2cccnc2)cc1 | 3.91
COc1ccc(-n2c(Cc3cccn3C)nnc2SCC(=O)N2CCCc3ccccc32)cc1 | 5.9
COC(=O)N[C@@H]1C[C@H]2[C@@H]3CC[C@H]4C[C@@H](OC)CC[C@]4(C)[C@H]3CC[C@@]12C | 20.7
O=C(Cn1c(=O)n(-c2ccccc2)c(=O)c2sccc21)NCc1ccccc1 | 11.5
CC(=O)N1CCc2cc(S(=O)(=O)NCCC(=O)NC3CCCCCC3)ccc21 | -7.07
Cc1cc(OCC(=O)NCCN2CCOCC2)cc(C)c1Br | 5.37
CCCCC(=O)c1c(C)cc(C)[nH]c1=O | 15.7
COc1ccc(Nc2nc(OC)nc(OC)n2)cc1 | 3.17
COc1cccc(C(=O)NCC(=O)N/N=C/c2cccnc2)c1 | 13.9
CCCCCCSc1cc(-c2nc3ccc(Cl)cn3c2NCCCC)ccc1OC.O=C(O)C(F)(F)F | 11.8
COc1ccc(NC(=O)COC(=O)C2CC(=O)N(c3ccc(OC(C)C)cc3)C2)cc1 (centres unmarked) | 8.88
O=C(CSc1ccc2nnc(-c3ccncc3)n2n1)Nc1ccccc1F | 6.75
O=C(O)c1cccc(-n2c(O)c(C=C3N=c4ccccc4=N3)sc2=S)c1 | 13.3
Cc1cc2c3c([nH]c2cc1S(=O)(=O)NCc1ccc(CN2CCCCCC2)o1)CC(C)(C)CC3=O | 12.1
